# Laboratory results reported in article PMC12136788.
# This is one part of the list.
# T1: UNK ZnF1-3 (human, UniProt Q9C0B0 31-174)
# T1 sequence: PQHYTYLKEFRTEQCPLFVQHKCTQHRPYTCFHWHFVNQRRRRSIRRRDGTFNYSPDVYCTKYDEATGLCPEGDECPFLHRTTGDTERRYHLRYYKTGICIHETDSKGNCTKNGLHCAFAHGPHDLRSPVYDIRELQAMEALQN
# B1: 97243632_97244010_318_CDS_ENSG00000156467_ENST00000518406|human|control|control (ssRNA)
# RNA: GGGAGUUCUACAGUCCGACGAUCGGGGUGAGAGUUUGCUUCACAGAAGCUCUUCUUGGGAUCUGGAGGGACACUCAAUGGGCUGAUCUUUUCAUCUAAGUAGGAAGCAGAGUGCAGAGCUGGAACAGCAAAGACCUCUUCAUACAACAGAGGAUUGAGCAUCA
# B2: chr11:23189859:23189860:+_ENSMUSG00000020290_ENSMUST00000020538|mus_mus|motif|central (ssRNA)
# RNA: GGGAGUUCUACAGUCCGACGAUCUUGAGGUAUUUCAGCUGUUAUAUGUCCACCUAAUUUGUUGACAAUAAUGGCCAUAGUACGGAGCACUUCUGGUUCUCUAGCAGCUGGUACAUUUCUCUGGUAAUCAAUAAGAACUGCAUCCAACAGAGGAUUGAGCAUCA
# B3: chr18:52893488:52893489:-_ENSG00000196628_ENST00000354452|hu_hu|FALSE|FALSE (ssRNA)
# RNA: GGGAGUUCUACAGUCCGACGAUCCAUUUAGACCAUUUCAAUGGAUUUAUGGCAUUUACUCAGUGCUGAUAGGUGGAAAAACUACUUGAACAGGGAUUUUUUUUUUUCUUAAUACAUGCCAAGAAUUGUGUGGCUGUAAAAAUACAACAGAGGAUUGAGCAUCA
# B4: 85775473_85775593_3881_3pUTR_ENSG00000115486_ENST00000233838|human|control|control (ssRNA)
# RNA: GGGAGUUCUACAGUCCGACGAUCGGAAGUCUGAGUUGGGGAUGAAUGUAAGUUCUGUUUAGGAUGAACUGAGCUUGAUAGCCCUGUGGGAUAUCCAGGUGGAACUUAGACCUAUACGUCUAGGGCACAGGAAAGAAACCUAGCCAACAGAGGAUUGAGCAUCA
# B5: 44924268_44924388_632_3pUTR_ENSG00000146676_ENST00000395699|human|control|control (ssRNA)
# RNA: GGGAGUUCUACAGUCCGACGAUCCGGUGAUGGAGGUGCCCUCCGGGAGCUCUCCAUACAGGCCGCCCCCUGGGCCCCCGGCGCCGCCUCCCGGGCCGCCUGCCAGCUCGUCGUCCUCGCCUCCGUAGUCGUCUAUGAGCUUCGCAACAGAGGAUUGAGCAUCA
# B6: chr13:22070289:22070290:-_ENSG00000165487_ENST00000382374|hu_hu|FALSE|FALSE (ssRNA)
# RNA: GGGAGUUCUACAGUCCGACGAUCAGCAAAGUCUUCCAAGUGGGUUGUAAAAUGGCAAAAUGACUUGAAUUCAUCCAAACUAAUGCUCUCUCCUGCUGACAACUUCUCUCUCACAUUUUUCCAAUAAAUAUCUUUAUUUUCAGUCAACAGAGGAUUGAGCAUCA
# B7: 25151176_25158280_1304_CDS_ENSMUSG00000033569_ENSMUST00000126626|mouse|control|control (ssRNA)
# RNA: GGGAGUUCUACAGUCCGACGAUCAUCAUCAUUUAGAGAAAUCCUGGAGAGUGUUCCUGUUAUGGUUGCUGCGCGGCAGGGGCCGAUAUCCUUAUGAAGCACUGAUCGGCAAGCAAUGUCUACGUCCUUUUCAAAGUCUGUCAUCAACAGAGGAUUGAGCAUCA
# B8: chr1:161326577:161326578:+_ENSG00000143252_ENST00000367975|hu_hu|FALSE|FALSE (ssRNA)
# RNA: GGGAGUUCUACAGUCCGACGAUCCAUCAAGUGUCGGAUCCCAUUCCAGGUAUGAUACAUGAGAGGGAAGACAAGUGCAAACUUAGCUGUGUGGAUCAGUGCUGGCCCCAGACACAGGGACUUCACAAGUUCCAAAUAAGACUCCAACAGAGGAUUGAGCAUCA
# B9: chr8:29961843:29961844:+_ENSG00000104660_ENST00000321250|hu_hu|motif|central (ssRNA)
# RNA: GGGAGUUCUACAGUCCGACGAUCGGCAAGUUCCUUACAAGCGUUACUCAUAGCAUCUGUAUCAUCCACUAAUCUUCUUGCGGUGCAGUAUGGAAUAGGUGAAAGGAUGUAAAAAAAUAGAACAAAGAGGGGCCAGUAUUUGUUCAACAGAGGAUUGAGCAUCA
# B10: chr1:60041781:60041782:+_ENSMUSG00000041040_ENSMUST00000036540|mus_hu|mus_mus_mus_hu_False|8_48 (ssRNA)
# RNA: GGGAGUUCUACAGUCCGACGAUCAAGUUUACAAUAGUAAAGUAAAUGCAGUAGUGGCAAAUUUUCUUUUAUUUUCCUUCACAAAAGAAAACCUCAGUAACCCAGUCCUAGUCUUGGACAUAGUGAAUCUCCAUGGGUCUGACUCAACAGAGGAUUGAGCAUCA
# B11: chr5:138118867:138118868:+_ENSG00000044115_ENST00000302763|hu_mus|FALSE|FALSE (ssRNA)
# RNA: GGGAGUUCUACAGUCCGACGAUCAGCCAAAACAUGGGCCUUCUUAGAACGGCCUCUCUUUUUAUUAGACGGCCCUUUACUAUUGGUGUUUACCAGGGUUGUAACCUGUGUAACAAGAGGCUCCAACAGUCUUUCAACAGCCAGCAACAGAGGAUUGAGCAUCA
# B12: chr16:94664741:94664742:+_ENSMUSG00000040785_ENSMUST00000117648|mus_hu|mus_mus_mus_hu_False|18_68 (ssRNA)
# RNA: GGGAGUUCUACAGUCCGACGAUCUGGUACUGAUCUUGGUAGCUGAUAUUCAGGAGAAAGGCUGGCCAAAGGUGUGUAUAUGCUGGUGUACUGGGGCAAACCUGGUAACACGUUUAUGUACGCUGGUGGUGUCUGGGUGAUAUCCAACAGAGGAUUGAGCAUCA
# B13: chr6:18258251:18258252:-_ENSG00000124795_ENST00000397239|hu_hu|motif|central (ssRNA)
# RNA: GGGAGUUCUACAGUCCGACGAUCCUUCUUUAAUGAGGACACAGUGCCUGGCCUGUUGUAAAGCAGUUUGUGUAGAUUUCGGAGUUCAUCGGUUUUCUUCUUACUUAGAAAAAAAUGUAUCCUCUCAAUUUCACAAAGUUUCUGCAACAGAGGAUUGAGCAUCA
# B14: chr3:148802587:148802588:-_ENSG00000071794_ENST00000310053|hu_mus|hu_hu_hu_mus_False|68_78 (ssRNA)
# RNA: GGGAGUUCUACAGUCCGACGAUCUCCAACAACUUGUCCUCUCAUAGUUCCAAAUAAAACGGAAUCUACUUCUUCAUCACUCGUUAGGAAGUCAUCUGGAGGAAUAAUGUCUUGGAAUUCAAAAUGUGGCAAGAAAGUUGAGUACAACAGAGGAUUGAGCAUCA
# Molecular target: T1, UNK ZnF1-3
# Experiment: nsRBNS (natural sequence RNA bind-n-seq); RBNS binding buffer (assumed for nsRBNS): 25 mM Tris pH 7.5, 150 mM KCl, 3 mM MgCl2, 0.01% Triton X-100, 500 ug/ml BSA, 20 U/ml SUPERase-In, 4 C; UNK is unkempt and MSI1 is Musashi-1; names of the RNAs are library labels; protein concentration not given here; high values mean tight binding
row,Binder,binding signal [enrichment R]
1,B1,1.51
2,B2,0.563
3,B3,0.879
4,B4,0.944
5,B5,0.68
6,B6,2.49
7,B7,1.26
8,B8,1.21
9,B9,1.52
10,B10,0.609
11,B11,1.03
12,B12,0.911
13,B13,0.92
14,B14,1.41
